Experimental data published in PubChem BioAssay AID1745853 (National Center for Advancing Translational Sciences (NCATS), 2022).
This is one part of the list. Shown are side measurements of this screen, not its main read-out; they come without a call.

Key:
Test in all cases: Primary Screen for Target Class Profiling of Small Molecule Inhibitors of Methyltransferases
[1] = molecular target: Glycine N-methyltransferase (Homo sapiens) (UniProt Q14749); settings: purified enzyme, MTase-Glo SAH luminescence; measured here: GNMT inhibition; at 40 µM; stronger effect = lower value
Summary of the method: (§1)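 Each enzyme was reacted with SAM and its substrate, with compounds tested once at 40 uM; SAH formed was read by MTase-Glo luminescence.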

[2] = molecular target: Guanidinoacetate N-methyltransferase (Homo sapiens) (UniProt Q14353); settings: purified enzyme, MTase-Glo SAH luminescence; measured here: GAMT inhibition; at 40 µM; stronger effect = lower value
Summary of the method: as §1

[3] = molecular target: Histamine N-methyltransferase (Homo sapiens) (UniProt P50135); settings: purified enzyme, MTase-Glo SAH luminescence; measured here: HNMT inhibition; at 40 µM; stronger effect = lower value
Summary of the method: as §1

[4] = molecular target: Nicotinamide N-methyltransferase (Homo sapiens) (UniProt P40261); settings: purified enzyme, MTase-Glo SAH luminescence; measured here: NNMT inhibition; at 40 µM; stronger effect = lower value
Summary of the method: as §1

[5] = molecular target: Phenylethanolamine N-methyltransferase (Homo sapiens) (UniProt P11086); settings: purified enzyme, MTase-Glo SAH luminescence; measured here: PNMT inhibition; at 40 µM; stronger effect = lower value
Summary of the method: as §1
% is scaled to controls: 0 for no effect and ±100 for the full control effect.

Structure (SMILES)	activity change, negative = inhibition [1]	activity change, negative = inhibition [2]	activity change, negative = inhibition [3]	activity change, negative = inhibition [4]	activity change, negative = inhibition [5]
CC(C)CCn1c(=O)c2ccc(C(=O)NC(C)C)cc2n2c(=O)n(CC(=O)NC(C)(C)C)nc12	2.51%	3.52%	6.89%	-8.61%	2.08%
CC1=COC(OC2OC(CO)C(O)C(O)C2O)C2C(CO)CC(OC(=O)/C=C/c3ccc(O)cc3)C12 (stereo not drawn)	-1.26%	-2.64%	-7.06%	-13.1%	0.203%
CCCN1C(=O)c2ccccc2CC1(C)C(=O)NC1CCCCCCC1 (stereo not drawn)	-0.109%	0%	11.5%	11%	4.18%
CCc1ccc(CNC(=O)CNC(=O)C2(C)Cn3c(cc4ccccc43)C(=O)N2CC)cc1 (stereo not drawn)	2.67%	0%	7.88%	-2.49%	3.05%
CCCN1C(=O)c2c(C(=O)NCc3cc(Br)ccc3OC)ncn2CC1(C)C(=O)NCCC(C)C (stereo not drawn)	-1.77%	0%	-0.658%	-7.5%	2.31%
CC(C)Oc1ccc(CNC(=O)Cn2ccc3cc(S(=O)(=O)N4CCCC4)ccc32)cc1	-4.07%	2.48%	-1.34%	-5.72%	-1.04%
CC(C)(Oc1ccc(C2CC2(Cl)Cl)cc1)C(=O)O (stereo not drawn)	10.1%	15%	13.1%	-1.07%	4.78%
C[S+](=O)([O-])c1ccc(-c2nnc3ccc(C(=O)NC4CCCCC4)cn23)cc1	-5.71%	-10.3%	-9.38%	-14.5%	7.28%
COc1cccc(CN2C(=O)c3cc4occc4n3CC2(C)C(=O)NC2CCCC(C)C2C)c1 (stereo not drawn)	-6.97%	0.204%	0.114%	-14.1%	-3.55%
CC(C)(C)C(=O)N[C@H]1C[C@@H](Cc2cc(CN3CCN(c4ccccc4)CC3)on2)C1(C)C	-6.31%	-8.32%	-5.08%	-12.6%	-12.4%
CCc1ccc(N2C(=O)c3cc4oc(C)cc4n3CC2(C)C(=O)NC2CCCCCC2)cc1 (stereo not drawn)	-2.38%	3.23%	4.25%	1.86%	-2.48%
CCn1c(C)ccc(C(=O)N2CCc3[nH]nc(-c4ccccc4F)c3C2)c1=O	-8.54%	-6.71%	-3.59%	-8.99%	-17.8%
COc1ccc(CCNC(=O)c2ccc3nnc(C4CC4)n3c2)cc1	-8.19%	-8.71%	-4.19%	-12%	-5.82%
Cc1c(Cl)cccc1NC(=O)N1CCn2cccc2C1C(C)C (stereo not drawn)	3.12%	0.16%	0.595%	0.271%	0.56%
COC(=O)c1ncn2c1C(=O)N(Cc1ccc(Cl)cc1)C(C)(C(=O)NC1CCCCC1)C2 (stereo not drawn)	5.78%	5.96%	8.11%	11.7%	4.48%
COc1ccc(C(=O)N2CCC3(CC2)CC(N(Cc2ccccc2)C2CC2)CCO3)cn1 (stereo not drawn)	-8.38%	-9.23%	-5.7%	-17.6%	-9.36%
COc1ccc(S(=O)(=O)Nc2cc(Cl)cc(Cl)c2OC)cc1N1CCNCC1	-0.62%	-6.01%	1.51%	-14.2%	-9.7%
COc1ccc(-c2ccccc2NC(=O)C2CCCN2C(=O)c2cccnc2)cc1 (stereo not drawn)	-5.77%	-5.33%	-1.66%	-10.5%	-5.2%
CC(C)CNC(=O)c1ccc2c(=O)n(C(C)C)c3nn(Cc4ccc(N5CCCC5=O)cc4)c(=O)n3c2c1	2.75%	0%	5.07%	4.17%	5.36%
CCCn1c(=O)c2ccc(C(=O)NC3CCCCC3)cc2n2c(=O)n(CC(=O)NC3CCCCC3)nc12	10%	1.25%	12.7%	6.82%	8.16%

Structure (SMILES)	activity change, negative = inhibition [1]	activity change, negative = inhibition [2]	activity change, negative = inhibition [3]	activity change, negative = inhibition [4]	activity change, negative = inhibition [5]
Cn1c(=O)n(C)c2cc(S(=O)(=O)NCc3ccccc3)c(Cl)cc21	-6.03%	-1.13%	-9.88%	-11.5%	-7.15%
COC(=O)C1=COC(O[C@@H]2O[C@H](CO)[C@@H](O)[C@H](O)[C@H]2O)C2C(C)C(=O)CC12 (stereo partly drawn)	6.58%	3.11%	8.91%	-4.15%	4.47%
CCCn1c(C)cnc1CCNC(=O)CC1CCN(C(C)=O)CC1	-0.906%	0.924%	-13%	-6.07%	6.76%
O=c1c2ccccc2n2c(=O)n(Cc3ccc(F)cc3Cl)nc2n1Cc1ccccc1	0.135%	0%	5.12%	2.62%	3.64%
Cc1cccc(C(=O)N2CCC(c3nc(C4CCOCC4)no3)C2)c1 (stereo not drawn)	-2.85%	-2.77%	-1.27%	-9.65%	-6.27%
Cc1ccc(CNC(=O)c2cc3n(n2)CC(C)(C(=O)NC2CCCCC2)N(C)C3=O)cc1 (stereo not drawn)	6.25%	0.104%	4.44%	11.3%	3.82%
CC(/C=C/[C@]1(O)[C@@]2(C)CO[C@@]1(C)C[C@@H](O)C2)=C\C(=O)O[C@@H]1O[C@H](CO)[C@@H](O)[C@H](O)[C@H]1O	0%	0.666%	-3.19%	-9.84%	0.77%
CN1CCC2(CCC1=O)CN(C(=O)CCOc1ccccc1)CCN2C (stereo not drawn)	-4.69%	1.24%	2.81%	-0.27%	-17.2%
O=C(Cn1ccc2cc(S(=O)(=O)N3CCCC3)ccc21)NCCc1ccc(Cl)cc1	-0.214%	0%	-2.64%	-0.81%	-2.06%
O=C1CC2CCN(C(=O)C3CCCCC3)CC2CCN1 (stereo not drawn)	0.537%	1.55%	3.47%	-0.763%	-0.505%
COc1ccc(-c2cn3cc(C(=O)N4CCCCC4)nc3c(=O)n2CC2CC2)cc1	-27.6%	2.12%	2.45%	-14.7%	1.43%
CN(C)[C@@H]1CN(Cc2ccccn2)CC[C@@H]1CO	-1.06%	-1.7%	-1.02%	-1.05%	-22%
CC(=O)c1c(C)nn(CCC(=O)N2CCC3(CC2)[C@H](O)C[C@@H]3O)c1C	-4.99%	-0.352%	-0.05%	-1.16%	3.61%
CCc1nc(-c2c3n(c(=O)n(CC(=O)NC4CCCC4)c2=O)CCCCC3)no1	-0.524%	4.66%	1.63%	-2.5%	13.5%
Cc1ccc(C(CC(=O)N2CCCCC2)c2cn(C)c3ccccc23)cc1 (stereo not drawn)	-2.91%	-0.567%	-2.08%	-11.4%	0.211%
CCCN1C(=O)c2cc(C(=O)N3CCN(C)CC3)nn2CC1(C)C(=O)NC1CCCC1 (stereo not drawn)	-1.9%	2.36%	4.57%	1.44%	-1.6%
COc1ccccc1CN1C(=O)c2ccc(-c3ccco3)n2CC1(C)C(=O)NC1CCCCCC1 (stereo not drawn)	-3.3%	3.79%	1.41%	-11.4%	-2.03%
CCOc1ccccc1CN1C(=O)c2cc3sccc3n2CC1(C)C(=O)NC1CCCCCCC1 (stereo not drawn)	-5.76%	0%	-2.45%	-6.62%	-5.49%
C[C@@]1(O)[C@H](O)[C@@H](CO)O[C@H]1n1ccc(N)nc1=O	-5.79%	-6.35%	15.9%	-13.9%	1.57%
Cc1ccc(-c2nc(-c3cc4cccc(OCc5cccc(C)c5)c4oc3=O)no2)cc1		-16.5%		-23.4%	-15.1%

Structure (SMILES)	activity change, negative = inhibition [1]	activity change, negative = inhibition [2]	activity change, negative = inhibition [3]	activity change, negative = inhibition [4]	activity change, negative = inhibition [5]
CC(C)n1c(=O)c2ccc(C(=O)NC3CCCCC3)cc2n2c(=O)n(Cc3c(F)cccc3Cl)nc12	6.45%	0%	11.5%	4.31%	5.8%
COC(=O)C12C(=O)C(C)=C(O)C1(C)C(C)=CC1C3(CO)CCC(O)C(C)(C)C3CCC12C (stereo not drawn)	-3.36%	0.476%	10.1%	-13.7%	-6.87%
O=C1CCC2(CCCN(c3ncccc3F)C2)CN1Cc1ccncc1 (stereo not drawn)	-4.85%	-6.51%	-2.54%	-1.64%	-9.12%
COc1ccc(C(=O)N2CCC(Cn3c(C)cnc3C3CCC3)CC2)c(OC)c1	-4.25%	-5.82%	-20.3%	-9.41%	-2.73%
CC1Oc2ccc(NC(=O)CC(C)(C)C)cc2CN(CCc2ccccc2)C1=O (stereo not drawn)	-5.68%	-0.268%	-29.1%	0.852%	0.678%
COC(=O)c1cc2n(n1)CC(C)(C(=O)NC1CCCCCC1)N(Cc1ccccc1)C2=O (stereo not drawn)	4.08%	0%	7.98%	-0.458%	-0.143%
CC1OC(OC2C(O)C(C(=O)O)OC(OC3CCC4(C)C(CCC5(C)C4C=CC4=C6CC(C)(C)CC(O)C6(C)CCC45C)C3(C)C)C2OC2OCC(O)C(O)C2O)C(O)C(O)C1O (stereo not drawn)	3.16%	9.91%	9.47%	-18%	8.14%
C[C@H](O)C(O)(C(=O)OCc1ccccc1NC(=O)CCC(N)C(=O)O)[C@H](C)O (stereo partly drawn)	0%	9.86%	6.47%	-2.21%	7.12%
O=C(NCCN1CCCC1)c1cc(-c2ccc(CN3CCOCC3)cc2)nc2ccc(F)cc12	-1.01%	-0.218%	-20.7%	-4.89%	3.74%
Nc1nc(Nc2ccc(S(N)(=O)=O)cc2)nn1C(=O)c1c(F)cccc1F	-22.7%	-8.01%	-4.66%	-24.3%	-0.208%
Cc1nc([C@H]2CCN(Cc3cccc(OC(F)(F)F)c3)C[C@H]2NC(=O)C2CC2)n[nH]1	-2.75%	0.104%	1.79%	3.31%	2.53%
CO[C@@H](C)Cn1c(=O)n(C)c2cnc3ccc(-c4cncc(C(C)(C)O)c4)cc3c21	-29.7%	-13.7%	-26.8%	-28.9%	-13.3%
Cc1ccc(C)c(OCCn2cc(C(=O)O)c3ccccc32)c1	-8.7%	-5.49%	4.53%	-20.9%	-1.2%
CC1CCCCN1S(=O)(=O)c1ccc(N2CCCC2=O)cc1 (stereo not drawn)	1.07%	-1.54%	0.432%	-16.7%	-4.48%
COc1ccccc1CNC(=O)C1(C)Cn2cnc(C(=O)NC3CCCCC3)c2C(=O)N1C1CC1 (stereo not drawn)	4.81%	0.047%	15.2%	1.2%	9.83%
NC(=O)CCCSc1nc(N)nc(-c2c(Cl)cc3c4c(cccc24)COC3)n1	0.639%	3.28%	5.27%	-12.8%	-0.334%
CC1(C(=O)NC2CCCCCC2)Cn2c(cc3sccc32)C(=O)N1Cc1ccccc1Cl (stereo not drawn)	1.31%	0%	2.31%	4.29%	-3.47%
COc1ccccc1-c1ccc(C(=O)N2CCC(N[S+](=O)([O-])c3ccccc3)CC2)cc1	-5.08%	-8.37%	-3.95%	-20.5%	-15.3%
Cc1noc(C)c1-c1cc2cc(CN(C)C)oc2c(N2CCOCC2)n1	-7.02%	-3.56%	-8.24%	-6.95%	-4.3%
COc1ccc(OC)c2c1cc1n2CC(C)(C(=O)NC2CCCC2)N(Cc2ccccc2F)C1=O (stereo not drawn)	3.21%	0%	3.53%	0.074%	-2.37%
